Results from article PMC4336329 (PLoS ONE, 2015).
Among all 310,000 compounds or so, about 2,200 (0.71%) showed an effect of 50% or more. The effect is printed as a negative number. The list shows a part of the results.

molecular target: human ether-à-go-go-related gene (hERG) potassium channel (human, UniProt Q12809); assay: primary screen, population patch clamp on CHO cells stably expressing hERG
Sequence (Q12809 whole entry, looked up): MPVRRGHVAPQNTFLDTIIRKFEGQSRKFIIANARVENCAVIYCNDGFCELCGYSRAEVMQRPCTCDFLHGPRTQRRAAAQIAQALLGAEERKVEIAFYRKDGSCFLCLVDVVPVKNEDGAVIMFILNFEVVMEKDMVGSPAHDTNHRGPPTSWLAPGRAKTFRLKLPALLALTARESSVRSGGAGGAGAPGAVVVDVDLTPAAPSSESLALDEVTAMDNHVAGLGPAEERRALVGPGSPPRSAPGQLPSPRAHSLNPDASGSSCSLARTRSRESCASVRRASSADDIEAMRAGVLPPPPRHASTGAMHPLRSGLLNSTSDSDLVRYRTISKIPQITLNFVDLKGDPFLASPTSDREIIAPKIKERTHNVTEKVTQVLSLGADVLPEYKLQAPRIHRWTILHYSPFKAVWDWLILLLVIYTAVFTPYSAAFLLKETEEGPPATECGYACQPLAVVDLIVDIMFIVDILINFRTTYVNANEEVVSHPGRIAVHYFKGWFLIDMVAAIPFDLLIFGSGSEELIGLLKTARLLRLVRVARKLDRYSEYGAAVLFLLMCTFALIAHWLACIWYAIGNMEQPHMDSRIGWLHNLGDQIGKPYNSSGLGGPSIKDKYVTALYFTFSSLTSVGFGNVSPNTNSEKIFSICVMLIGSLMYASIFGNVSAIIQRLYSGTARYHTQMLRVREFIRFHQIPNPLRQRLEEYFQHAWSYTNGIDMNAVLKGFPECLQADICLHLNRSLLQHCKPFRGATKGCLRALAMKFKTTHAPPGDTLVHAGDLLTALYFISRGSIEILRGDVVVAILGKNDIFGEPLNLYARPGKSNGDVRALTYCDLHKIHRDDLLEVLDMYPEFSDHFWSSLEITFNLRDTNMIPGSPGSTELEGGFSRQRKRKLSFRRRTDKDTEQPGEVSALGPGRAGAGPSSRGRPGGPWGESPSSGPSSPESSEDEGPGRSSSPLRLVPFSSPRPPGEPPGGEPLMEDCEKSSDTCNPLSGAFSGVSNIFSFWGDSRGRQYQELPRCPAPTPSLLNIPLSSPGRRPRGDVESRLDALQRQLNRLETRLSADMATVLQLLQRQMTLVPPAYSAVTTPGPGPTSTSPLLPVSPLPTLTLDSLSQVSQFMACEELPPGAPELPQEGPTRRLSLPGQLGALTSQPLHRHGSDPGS

Row | Structure (SMILES) | hERG current change (%, negative = inhibition) at 1uM [%]
1 | CCc1ccccc1OCC(=O)Nc1ccc2c(c1)OCCO2 | 0.603
2 | CC(C)CCn1c(=O)c2ccccc2n2c(=S)[nH]nc12 | 15.6
3 | COc1ccc(S(=O)(=O)N2CCN(Cc3ccc4c(c3)OCO4)CC2)cc1F | 19.7
4 | CCCCOc1ccc(C2C3CN(C(=O)OCC)CC=C3C(C#N)=C(N)C2(C#N)C#N)cc1OC (stereo not drawn) | 13.3
5 | COc1ccc(CCN2CC(C(=O)NCc3cnn(C(C)C)c3)CCC2=O)cc1 (stereo not drawn) | 17.5
6 | O=C(CSc1nn(-c2ccccc2)c(=S)s1)Nc1ncccn1 | 12.2
7 | O=C(CSCCO)Nc1cccc(C(F)(F)F)c1 | -7.28
8 | COc1ccc(CNC(=O)CN(C(=O)CCC(=O)Nc2ccccn2)c2cc(C)ccc2C)cc1 | 5.61
9 | Cc1ccc(C)c(NC(=O)C2CC3CCC2C3)c1 (stereo not drawn) | 8.82
10 | COc1cc(NC(=O)COC(=O)CSc2ccc3ccccc3c2)c(C)cc1[N+](=O)[O-] | -0.202
11 | CCc1nccn1-c1cc(C(C)(C)C)nc2c(-c3ccc(Cl)cc3)cnn12 | 12.4
12 | O=C(NCCc1ccc(Cl)cc1)C1CCN(c2cnccn2)CC1 | -7.01
13 | Cc1ccccc1Nc1nc(-c2sc(NC(=O)c3cccc(Cl)c3)nc2C)cs1 | 10.5
14 | c1ccc(-c2cnc(-c3ccccc3)nn2)cc1 | 15.2
15 | Cc1ccc2cccc(OCC(=O)N3CCc4ccccc43)c2n1 | 8.81
16 | CC(OC(=O)c1nc(Cl)ccc1Cl)C(=O)Nc1ccccc1F (stereo not drawn) | 14.2
17 | O=C(Nc1cccc(Cl)c1)OCc1cncs1 | 3.01
18 | CC1(CC(=O)O)SC(=O)NC1=O (stereo not drawn) | -7.21
19 | COCCN1C(=O)C(O)=C(C(C)=O)C1c1ccc(F)cc1 (stereo not drawn) | -10.7
20 | COc1ccc(OC)c(NC(=S)NCc2cccnc2)c1 | 11.8
21 | Cc1ccc(S(=O)(=O)CC(=O)c2ccc(C(C)(C)C)cc2)cc1 | 2.43
22 | OCC(O)/C=N/Nc1nc2ccccc2s1 (stereo not drawn) | 9.56
23 | O=C1c2ccccc2C(=O)N1C(CO)C(O)c1ccc([N+](=O)[O-])cc1 (stereo not drawn) | 3.43

Row | Structure (SMILES) | hERG current change (%, negative = inhibition) at 1uM [%]
24 | O=C(NCC(c1ccco1)N1CCOCC1)c1cccc(Cl)c1 (stereo not drawn) | -0.645
25 | CCCc1cc(=O)oc2cc(O[C@@H]3O[C@H](CO)[C@@H](O)[C@H](O)[C@H]3O)ccc12 | 14.4
26 | CCOc1ccc(OCC)c(NC(=O)CN2CCN(c3ccc(C)cc3C)CC2)c1.Cl | 6.37
27 | C/C(=N\NC(=S)Nc1c(C)cccc1C)c1ccc(OC(F)F)cc1 | 6.89
28 | Cc1ccc(NC(=O)CN(c2ccc3c(c2)OCO3)S(=O)(=O)c2c(C)n[nH]c2C)cc1 | 9.19
29 | O=C(CCC(=O)N(CC(=O)NC1CCCC1)Cc1ccccc1Cl)Nc1nccs1 | 14.6
30 | CC(C)(C)C(=O)NN=C1CCC(c2ccccc2)CC1 (stereo not drawn) | 12.6
31 | CN(CC(=O)Nc1ccc(F)cc1)CC(=O)Nc1ccc(Cl)c(S(=O)(=O)N2CCOCC2)c1 | 1.9
32 | Oc1ccc(Br)cc1/C=N/N1CCN(Cc2cccc3ccccc23)CC1 | 11.5
33 | Cc1ccc(-n2nc(C)c3c2OC(N)=C(C#N)C3c2ccncc2)cc1 (stereo not drawn) | 8.82
34 | Cc1ccc([N+](=O)[O-])c(OCCCN2CCCCCC2)c1.O=C(O)C(=O)O | -14.5
35 | COc1cccc(/C=N/NC(=O)CCn2cnc3ccccc32)c1 | 9.74
36 | COC(=O)C1C(O)=C(C(C)=N)C(=O)CC1(C)C (stereo not drawn) | 15.6
37 | COCC(=O)N/N=C\c1ccccc1OC/C=C/c1ccccc1 | 7.47
38 | O=C(Nc1ccc2c(c1)OCO2)c1ccc(CN2CCOCC2)cc1 | 10.8
39 | CCCn1c(NC(=O)CCNC(=O)c2ccccc2Cl)nc2ccccc21 | 4.07
40 | CCSCc1nnc(SCC(=O)Nc2cccc(C(C)=O)c2)n1C | 8.37
41 | Cc1ccc(S(=O)(=O)Nc2nc3ccc(S(=O)(=O)N4CCCC4)cc3s2)cc1 | 15.3
42 | CCOC(=O)c1cc(CC)sc1N1C(=O)CC(Sc2ccccc2C(=O)O)C1=O (stereo not drawn) | 9.81
43 | COc1ccccc1C(O)Cc1nc2ccccc2n1C (stereo not drawn) | 13
44 | Cl.O=S(=O)(NCCN1CCOCC1)c1cccs1 | -23.3
45 | O=C(CCSc1ccc(Cl)cc1)N1CCN(c2ccc(O)cc2)CC1 | 0.0976
